Experimental data published in ChEMBL document CHEMBL4888484, “Replenishing the malaria drug discovery pipeline: Screening and hit evaluation of the MMV Hit Generation Library 1 (HGL1) against asexual blood stage Plasmodium falciparum ,using a nano luciferase reporter read-out” (2022).
Hit rate of the full screen: of about 150,000 compounds, about 540 (0.36%) showed an effect of 50% or more. The list shows a part of the results.

Test system: Plasmodium falciparum
Assay: Primary screen in NF54 nanoGlo assay, in single point, at 2uM, 72h; a lower Z score goes with more inhibition
Type: functional, Erythrocyte
Conditions: timepoint 72 hour

Compound	% Inhibition	Z score
O=C(NCc1ccco1)C(=O)Nc1nccs1	-8%	1.02
COc1ccc(N2CCN(C(=O)c3nn(-c4ccc(C)cc4)c(=O)n(C)c3=O)CC2)cc1	-16%	1.51
CCCC[C@H]1CCCN1C(=O)c1cccc(-c2ccco2)c1	-28%	3
O=C(NC1CC2CC2C1)C1CCc2cn[nH]c2C1 (stereo not given)	-1%	0.23
O=C(Nc1nc(C(=O)NCCc2ccncc2)cs1)c1cc(F)cc(F)c1	15%	-2.85
Cn1nncc1C(=O)N[C@@](C)(CO)c1cccc(Br)c1	-13%	2.65
O=C(c1cncc(F)c1)N1CC(Cn2cncn2)C1	-9%	1.14
OC1CCN(c2nc3nonc3nc2NC2CCCC2)CC1	-4%	0.63
COCCOCC(=O)N1CCC[C@H](c2[nH]ncc2-c2ccc(F)cc2)C1	-7%	0.98
C[C@H]1C(=O)Nc2ccccc2CN1C(=O)c1cncn1C	-15%	2.41
Nc1ccc(S(=O)(=O)N2CCCC2)cc1NC(=O)C1CC=CC1	-4%	0.62
C[C@H]1CN(C(=O)c2cnc(C(C)(C)C)nc2)c2ccccc2C(=O)N1	-14%	2.5
O=C(NC[C@H]1O[C@@H](CO)[C@@H](O)[C@H]1N1CCN(c2ccccn2)CC1)Nc1ccsc1	-13%	1.65
Cc1cc(Cl)cc(C(=O)NCCOCC(N)=O)c1	-18%	3.37
O=c1[nH]nc(CNc2nccc(OCc3ccccc3)n2)[nH]1	-6%	0.67
CCn1cc(-c2cc(-c3cnn(C)c3)c(C#N)c(N)n2)c2ccccc21	-5%	0.62
N#CC1(NC(=O)c2ccncc2Cl)CCCC1	34%	-4.52
Cn1nccc1-n1nc(C(F)(F)F)c2c1CCCC2	-12%	1.61
Cc1ccc(-c2nc(C)c(C(C)C)c(N3CCN(C(=O)Nc4cccc5ccccc45)CC3)n2)cc1	13%	-1.45
CC(C)C[C@@H]1NC2(CCN(S(=O)(=O)c3ccccc3)CC2)N(Cc2cccc(C(F)(F)F)c2)C1=O	-12%	2.3
Cc1c(Cl)c(C(=O)N2CCNC(C)C2C)nn1C (stereo not given)	-16%	2.29
CCC(=O)N1CCc2cc(CNC(=O)c3ccnn3C)ccc21	-8%	1.49

Compound	% Inhibition	Z score
Cc1c(Br)cncc1C(=O)NC(C)(C)C(C)(F)F	4%	-0.64
O=C(COCc1ccccc1)N1CC[C@@]2(CCCN(CC3CC3)C2=O)C1	-5%	0.77
COc1ccc(-c2noc(-c3cccnc3NCCc3ccccc3)n2)cc1	-3%	0.5
CO[C@@H](C(=O)N1CC2CC2C1)c1ccccc1 (stereo not given in full)	2%	-0.46
O=C(CC1N=C(O)N(Cc2ccccc2Cl)C1=O)N1CCOC(c2ccccc2)C1 (stereo not given)	-8%	0.88
Fc1ccc(Br)c(CNCCc2nnc3n2CCC3)c1	-14%	1.54
C=CCC1(S(=O)(=O)N[C@H]2CCc3cc(F)ccc32)CC1	-3%	0.51
COc1ccc(C)cc1S(=O)(=O)N1CCn2nc(CNC(C)=O)cc2C1	-21%	2.78
Cc1[nH]c2ccccc2c1[C@@H](O)CN1CCC2(CC1)OCCO2	-2%	0.38
O=C(Cc1ccccn1)N1CCN(c2ccc3nccnc3n2)CC1	2%	-0.22
C#C[C@H](CO)NC(=O)Nc1cccc(C)n1	-12%	1.77
CCCn1nc(-c2ccc(C(N)=O)cc2)nc1CCn1c(C)cccc1=O	-8%	1.67
CCCc1cc([C@@H]2CCCN2Cc2ccc(C)cc2C)no1	-19%	2.6
CN(CC1CCCC1)C(=O)[C@@H]1CC=CCC1	-11%	1.4
COCC1(C2CCC2)CN(C(=O)NCc2ccccc2S(N)(=O)=O)C1	-7%	1.16
OCC1(Nc2ccc(Cl)cn2)CCC1	-8%	0.85
COC(=O)[C@H]1CN(c2cc(C)nc(C)n2)C[C@@H]1c1ccc(O)cc1	5%	-0.76
Nc1ccnc(N2CCC3(CC2)c2nc[nH]c2CCN3C(=O)C2CCC2)n1	-5%	0.67
Cc1nn(C)cc1[C@H](C)NS(=O)(=O)CCc1ccc2c(c1)CCO2	-3%	0.39
COc1cc2c(cc1C(c1ccccc1)(c1ccccc1)[C@H]1C=CC=CC1)NC(C)(C)C=C2C	-5%	0.95
CCN1CCN(c2nc3ncn(CC(=O)Nc4ccc(C(C)=O)cc4)c(=O)c3s2)CC1	-7%	1.06
O=C(Nc1ncc(C(O)(C(F)(F)F)C(F)(F)F)s1)c1ccccc1	6%	-0.61

Compound	% Inhibition	Z score
Cc1nc(Cc2c[nH]c(=O)[nH]c2=O)n(C(C)(C)C)n1	-9%	1.62
CCc1nnc(NC(=O)CC2CC3CCC2C3)s1 (stereo not given)	9%	-1.08
Cc1nc(-c2cc(S(=O)(=O)NC3CCCCC3)c(C)n2C)sc1C	-14%	2.25
O=C(O)[C@H]1CN(c2nccc(N3CCC(O)CC3)n2)C[C@@H]1c1ccncc1	-4%	0.71
CC(NC(C)c1cccs1)C(=O)NC1CCCC1 (stereo not given)	-5%	0.65
COC(=O)CC(C)NC(=O)CC(C)NC(=O)C1CCCC1 (stereo not given)	-9%	1.14
Cc1cccc(Cn2cc(-c3cnn(Cc4cccc(C)c4)c3)cn2)c1	-4%	0.36
O=C(Nc1nccs1)N1CCC[C@H]1c1ccc2c(c1)OCCCO2	-7%	1.32
O=C(CN(CCN1CCOCC1)C(=O)c1ccc(Br)cc1)N(CCc1ccccc1)Cc1ccco1	-7%	1.04
COCC[C@H](C)NC(=O)Nc1cc(C)ccc1Br	-5%	0.83
CC(C)[C@@H](C(=O)NCc1ccc(C2CCC2)cc1)N1CCCS1(=O)=O	1%	-0.18
NC(=O)c1ccc(-c2ccc(C(=O)N3C[C@H]4C[C@H](O)[C@H](O)C[C@H]4C3)cc2)o1	-9%	0.86
C[C@H](NCc1ccc(C2CC2)cc1F)c1nccs1	-11%	1.16
CC(C)CCN1C(=O)[C@@]2(CC(=O)Nc3c2c(=O)[nH]n3C(C)C)c2ccccc21	-1%	0.12
CN(CC1(O)CCC1)c1ccc2ccccc2n1	-7%	0.75
Cc1cccn2c(=O)c(C(=O)NCCCN3CCCC3=O)c(O)nc12	-15%	1.86
CC[C@](C)(NC(=O)c1cnc(C)cn1)C(=O)OC	-3%	0.34
O=C1CCN(S(=O)(=O)c2cc(F)cc(Cl)c2)C2CCCC12 (stereo not given)	-1%	0.21
COCCCNC(=O)[C@H](C)S(=O)(=O)c1ccc(F)c(Cl)c1	11%	-1.5
CCOC(=O)N1CC[C@H](NC2(c3cc(F)ccc3F)CC2)C1	-9%	1.36
O=C(Cn1cc2c(n1)CCCCC2)Nc1c(F)c(F)c(F)c(F)c1F	-7%	1.26
COc1cc(Cl)cc(C(=O)N2CC[C@](O)(C3CC3)[C@@H](C)C2)c1	-6%	0.89

Compound	% Inhibition	Z score
Cc1ccccc1CNC(=O)N1CC[C@H]2[C@H](CCC(=O)N2CCCO)C1	3%	-0.64
CN(CC(O)COc1ccccc1)C(CNC(=O)OC(C)(C)C)C1CC1 (stereo not given)	-11%	1.38
CCc1cccc(N(C)S(=O)(=O)C2COC2)c1	-10%	0.97
CNC(=O)[C@H]1CN(C(=O)Cc2ccc(OC)c(Cl)c2)CC12CCCC2	-1%	0.16
O=C1COc2cc(C(=O)N3CCCCCO3)ccc2N1	-4%	0.79
COc1ccc(CN=C2NCCCCN2)cc1Cl	6%	-0.83
COc1cccc([C@H](CN2CCN(C(=O)Nc3cc(OC)c(OC)c(OC)c3)CC2)OCc2cccc(Cl)c2)c1	-7%	1.03
Fc1c(Cl)cccc1Cc1noc(-c2nc3n(n2)CCCN3)n1	-9%	1.65
CCCn1nnnc1CNc1cc(F)c(F)cc1Cl	-3%	0.48
COc1ccc(N2CCN(C(=O)c3n[nH]c4c3CN(C)CC4)[C@@H](C)C2)cc1	-2%	0.24
CN1CC2(CCN(C(=O)CCn3cnnn3)CC2)C[C@@H](c2ccccc2)C1=O	10%	-1.34
CN(C(=O)NCCCC(C)(C)CO)C1CC1	-12%	1.62
CC[C@H](NC(=O)CCCn1cncn1)c1ncccc1C	-1%	0.18
O=C1CC[C@@]2(CCCN(S(=O)(=O)C3CC3)C2)CN1Cc1ccccn1	-10%	2.04
CCC(NC(=O)C1CCNCC1)C1CN(Cc2ccccc2)CCO1 (stereo not given)	1%	-0.26
Cc1cn2nc(N3CCC4(CC3)C[C@@H]4c3nc(-c4cccc(Cl)c4)no3)sc2n1	-4%	0.82
N#CCCn1cc([C@@H](CC(=O)c2ccccc2)C(=O)O)c2ccccc21	-17%	2.03
Cc1nc(C(NC(=O)C2CCC(C)O2)c2ccc(Cl)cc2)no1 (stereo not given)	2%	-0.33
O=C(c1cscn1)N1CC[C@H](N2CCOC2=O)C1	-1%	0.22
